Where “and” joins values, the source holds several entries; their conditions need not be identical. Equal entries are not always repeated. About 230 (0.21%) of roughly 110,000 compounds showed an effect of 50% or more. The list shows a part of the results. Where a SMILES comes first, the peptide text is derived from it. The star is where a group is joined. Boc = CC(C)(C)OC(=O)*
Biological target: DPAP1 (Plasmodium falciparum, UniProt Q8IIJ9)
Assay: primary screen, percent inhibition; read by cleavage of a fluorogenic dipeptide substrate; higher = more effect of the substance
Set-up: species or system P. falciparum D10 trophozoite lysates; single well
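Also: 30 min substrate incubation versus DMSO and 10 µM JCP410 controls.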

DPAP1, sequence (Q8IIJ9 whole entry, looked up): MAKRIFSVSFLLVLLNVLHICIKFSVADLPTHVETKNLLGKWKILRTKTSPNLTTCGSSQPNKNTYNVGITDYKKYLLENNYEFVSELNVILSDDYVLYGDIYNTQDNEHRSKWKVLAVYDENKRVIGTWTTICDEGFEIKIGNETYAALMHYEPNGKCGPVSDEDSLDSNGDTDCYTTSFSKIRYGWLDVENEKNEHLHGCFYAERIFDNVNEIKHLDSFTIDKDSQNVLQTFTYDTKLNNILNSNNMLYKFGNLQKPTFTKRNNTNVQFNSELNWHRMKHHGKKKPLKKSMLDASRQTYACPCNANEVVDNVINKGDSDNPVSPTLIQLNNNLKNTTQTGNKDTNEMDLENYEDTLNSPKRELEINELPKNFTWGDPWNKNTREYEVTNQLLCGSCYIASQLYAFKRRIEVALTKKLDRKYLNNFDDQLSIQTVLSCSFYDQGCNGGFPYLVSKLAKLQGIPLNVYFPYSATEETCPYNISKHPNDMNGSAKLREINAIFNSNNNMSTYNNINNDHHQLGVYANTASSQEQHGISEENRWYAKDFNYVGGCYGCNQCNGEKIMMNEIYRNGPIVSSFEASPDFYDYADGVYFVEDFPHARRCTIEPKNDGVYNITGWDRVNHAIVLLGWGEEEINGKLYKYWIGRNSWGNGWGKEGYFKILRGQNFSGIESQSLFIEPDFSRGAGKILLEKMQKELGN

| Structure (SMILES) | % Inhibition @ 10 uM |
| --- | --- |
| O=c1[nH]c(=O)c2sc3nc4c(cc3c2[nH]1)CCCCC4 | -6.05% |
| CCCCNC(=O)c1ccccc1NC(=O)c1ccco1 | 14.8% |
| COc1ccc(C2CC(=O)Nc3c2cc(Br)c2ccccc32)c(OC)c1OC (centres unmarked) | -0.478% |
| CC(=O)N1CCC(NCCC(c2ccccc2)c2ccccc2)CC1 | 1.57% |
| CC(=O)NCCNC(=O)c1cc2ccccc2cc1O | -2.84% |
| COC(C(=O)NCc1ccc(C)cc1)c1ccccc1 (centres unmarked) | -2.88% and -1.88% |
| COc1ccc(CN2C(=O)c3cccnc3C2=O)cc1S(=O)(=O)N1CC=C(c2ccccc2)CC1 | 0.882% |
| Cc1ccc(C(=O)Nc2nc(-c3ccccc3)cs2)cc1 | 4.16% |
| CCCCN(C)C(=O)c1cc(-c2ccc(F)cc2)[nH]n1 | 2.96% |
| Cc1ccc(-n2c(C)cc(C(=O)C(=O)NCc3ccco3)c2C)cc1C | -2.84% |
| Fc1ccc(-c2nnc(-c3ccccc3-c3ccc(C(F)(F)F)cc3)o2)cc1 | -6.35% |
| COC(=O)c1ccc(-c2ccco2)n1CC(=O)NC1CCCC1 | -9.33% |
| Cc1coc2c1c(C)cc1oc(=O)c(CC(=O)NCc3ccco3)c(C)c12 | -0.808% |
| CCCOc1cccc(C2c3c(oc4ccccc4c3=O)C(=O)N2c2nnc(C(C)C)s2)c1 (centres unmarked) | -6.23% |
| CCCCOc1ccc(S(=O)(=O)NCc2csc(-c3ccccc3)n2)cc1 | -0.72% |
| Fc1ccccc1OCCCCCCN1CCCC1 | -0.833% |
| COc1ccc(-c2nnc(NC(=O)C(F)(F)F)s2)cc1OC | 1.58% |
| O=C1CCCN1CCSC(=S)N1CCCCCC1 | -3.99% |
| Cc1cc(NC(=O)CC(C)n2nc(C)cc2C)c2ccccc2n1 (centres unmarked) | -1.93% |
| Clc1cccc(C2NCCc3c2[nH]c2ccccc32)c1Cl (centres unmarked) | 4.89% |
| O=C(Cn1ncc2c3ccccc3n(Cc3ccccc3)c2c1=O)N1CCOCC1 | 1.8% |
| Cc1ccc(S(=O)(=O)N2CC=C(c3c(C)n(CC(=O)N4CCCC4)c4ccccc34)CC2)c(C)c1 | 0.66% |
| Cc1ccc(C2CC(C(F)(F)F)n3ncc(C(=O)N(C)Cc4c(C)nn(C)c4C)c3N2)cc1 (centres unmarked) | -2.14% |
| CCOC(=O)C1CCN(Cc2ccccc2Cl)CC1 | 3.25% |
| Cc1nc2ccccc2c2oc(C(=O)NC3CC3)cc12 | -1.7% |
| CC(=O)c1ccc(N(C(C)=O)C2=C(NCCO)C(=O)c3ccccc3C2=O)cc1 | -1.5% |

| Structure (SMILES) | % Inhibition @ 10 uM |
| --- | --- |
| COc1cccc2c(C(=O)O)cc(-c3ccccc3)nc12 | 0.0345% |
| Cc1c(CN2CCC(C(N)=O)CC2)c(=O)n(-c2ccccc2)n1C | -3.27% |
| CC1CC(C)CN(C(=O)CN2C(=O)CSc3ncccc32)C1 (centres unmarked) | 1.03% |
| Cc1cc(C)nc(N2C(=O)CC(Cc3ccc(Cl)cc3)C2=O)n1 (centres unmarked) | -6.94% |
| CN1CCN(Cc2nc3c(c(=O)n(C)c(=O)n3C)n2CCCO)CC1 | -3.23% |
| CCOCCCNC(=O)c1cn(C)c(=O)c2cc(OC)c(OC)cc12 | 0.231% |
| CC(C)NC(=O)c1ccc(N2CCN(C(C)C)CC2)nc1 | -6.52% |
| CCN(CC)CCCCOc1ccccc1C | -2.28% |
| COCCCNc1cnn(C23CC4CC(CC(C4)C2)C3)c(=O)c1Cl | -3.44% |
| N#CCNC(=O)[C@@H](Cc1cccc2ccccc12)NC(=O)OCc1ccccc1 | -1.5% |
| CC(C)Cn1c(=O)c2sccc2n2c(CCCC(=O)N3CCCCC3)nnc12 | -6.56% |
| CCCN1CCN(C(=O)c2cccc3c2C(=O)N(CCOC)C3)CC1 | -2.29% |
| CC1CCN(C(=O)Cn2cnc3onc(-c4ccc(F)cc4)c3c2=O)CC1 | 5.2% |
| Cc1ccc(-c2nc3s/c(=C\C=C\c4ccccc4)c(=O)n3n2)cc1 | -1.52% |
| COc1ccccc1CNC(=O)C1CCC1 | -3.37% |
| COc1ccc(-n2nnnc2C2CCN(S(=O)(=O)c3cc(OC)ccc3OC)CC2)cc1 | 1.67% |
| COc1ccc(-c2cc(C)no2)cc1S(=O)(=O)NCCCN(C)Cc1ccccc1 | -2.25% |
| CC(C)(C)c1ccc(Oc2coc3cc(OCC(=O)NC4CCCCC4)ccc3c2=O)cc1 | -7.45% |
| CCCCSCC1Cn2nc([N+](=O)[O-])nc2O1 (centres unmarked) | -0.636% |
| O=C(c1ccccc1F)N1CCN(c2ccccc2)CC1 | 1.13% |
| COc1ccc(CNC(=O)c2cc3n(n2)C(C(F)(F)F)CC(c2ccco2)N3)cc1OC (centres unmarked) | 4.08% |
| Cc1nc2c(c(C)c1CCC(=O)NCCc1ccco1)c(=O)n(C)c(=O)n2C | 6.84% |
| CCc1ccc(C(=O)CC2(O)C(=O)N(C)c3ccccc32)cc1 (centres unmarked) | -6.86% |
| CCOC(=O)N1CCN(C(=O)COc2ccc(C)c(C)c2)CC1 | -1.6% |
| Cc1ccc2[nH]c(-c3ccc(O)cc3)nc2c1 | 1.12% |
| O=C(Nc1ccc(F)cc1)C12CC3CC(CC(C3)C1)C2 | 6.18% |

| Structure (SMILES) | % Inhibition @ 10 uM |
| --- | --- |
| O=C(NCCCN1CCCCC1)C1=Cc2sc3c(c2CS1)CCCC3 | 7.04% |
| CC1=C(c2ccc(C(C)C)cc2)S(=O)(=O)N=C1NC(C)CCc1ccccc1 (centres unmarked) | 2.27% |
| CCN(CC)C(C)C(=O)Nc1c2c(cc3c1CCC3)CCC2 (centres unmarked) | 3.91% |
| CCCCN1CC(C(=O)NCCc2ccc(Cl)cc2)CC1=O (centres unmarked) | 4.81% |
| O=C(O)c1ccc(Cl)c(S(=O)(=O)N2CCCC2)c1 | 1.88% |
| CN(C)/C=N/c1ccn(Cc2ccccc2)c(=O)c1C#N | -0.591% |
| O=C(COc1ccc(Cl)c(Cl)c1)N(Cc1ccc(Br)cc1)c1cccc(Cl)c1 | 0.132% |
| CN1CCn2ccc3nc(O)nc1c32 | 3.74% |
| COc1ccc(-c2noc(CN(C(=O)c3ccc(OC)c(OC)c3)C3CCCCC3)n2)cc1 | 0.486% |
| Cc1cccc(N2CCN(C(=O)CCCC(=O)O)CC2)c1C | -0.898% |
| COc1cccc(OC)c1C(=O)NCc1ccc(Cl)c(Cl)c1 | 3.67% |
| Cc1ccc2scc(CN3CCCC3)c2c1 | 8.59% |
| O=C(O)/C(=C\c1ccc(F)cc1)NC(=O)c1ccco1 | 15.4% |
| COCC1=Nc2ncnn2C(c2ccc(OC)cc2)/C1=C(/O)OC (centres unmarked) | -1.62% |
| Cc1c2cnn(CC(=O)N3CCN(Cc4ccccc4)CC3)c(=O)c2c(C)n1Cc1ccccc1F | -2.17% |
| COc1cc(C(=O)n2nc(-c3ccco3)nc2NCc2cccs2)cc(OC)c1OC | 0.248% |
| CC1(C)Cc2ccccc2C(/C=C(\O)C(=O)N2CCOCC2)=N1 | 0.815% |
| COc1ccc(S(=O)(=O)Nc2c(C)n(C)n(-c3ccccc3)c2=O)cc1 | -0.446% |
| Cc1cc(C)c2c(-n3cccc3)nn(CC(=O)NCCC(C)C)c2n1 | 1.64% |
| CC(C)N(Cc1ccccc1)C(=O)C(Cc1ccccc1)NS(=O)(=O)c1cccc2nsnc12 (centres unmarked) | -9.06% |
| CCC1CCCCN1S(=O)(=O)c1ccc2ccc(C)cc2c1 (centres unmarked) | -2.91% |
| Cc1ccc(-c2cn3c(n2)sc2cc(C(=O)NCCCOC(C)C)ccc23)c(C)c1 | -0.613% |
| O=C(Cc1ccccc1)NCCN1CCOCC1 | 0.986% |
| O=C(COc1ccccc1)Nc1cccc(C(=O)O)c1 | -2.84% |
| COc1ccc(/C=C2\Nc3ccccc3C2=O)cc1 | -4.5% |
| O=C(Nc1nonc1NC(=O)C12CC3CC(CC(C3)C1)C2)c1ccccc1Cl | -4.49% |

| Structure (SMILES) | % Inhibition @ 10 uM |
| --- | --- |
| Cc1cccc(N2C(=O)C3CC=CCC3C2=O)c1 (centres unmarked) | -1.07% |
| O=C(O)Cc1cccc2c1sc1ccccc12 | 2.4% |
| COc1cc(OC)c2c(C)c(CC(=O)NCc3ccco3)c(=O)oc2c1 | 0.895% |
| O=C(Nc1ccccc1-c1nc2ccccc2s1)c1cccnc1 | -1.82% |
| Cc1[nH]nc2c1C(c1c(Cl)cccc1Cl)C(C#N)=C(N)O2 (centres unmarked) | -4.94% |
| O=C(O)CN1C(=O)C2CC=CCC2C1=O (centres unmarked) | 14.3% |
| O=C1OC(c2ccc(Br)cc2)=N/C1=C\c1ccc2c(c1)OCO2 | 2.98% |
| Cc1c(Cl)cccc1NC(=O)c1ccc(OCC(=O)N2CCCCC2)cc1 | -3.92% |
| C=CCn1c(=S)[nH]c2sc3c(c2c1=O)CC(C)(CC)OC3 (centres unmarked) | 5.61% |
| COc1ccc(-c2[nH]c(C(F)(F)F)nc2-c2nccn2C)cc1 | 1.89% |
| Cc1cccc(N2CCN(C(=O)c3ccccc3NC(=O)C3CC=CCC3C(=O)O)CC2)c1 (centres unmarked) | 0.145% |
| CC(C)(C)OC(=O)NC(Cc1ccccc1)C(=O)N1CCCC1C(=O)O (stereo not drawn) (Boc-Phe-Pro-OH; configuration not given here) | 0.275% |
| COc1ccc(-n2nnnc2C2CCN(S(=O)(=O)N(C)C)CC2)cc1 | -1.71% |
| O=C(N/C(=C/C=C/c1ccccc1)C(=O)N1CCOCC1)c1ccccc1Cl | -6.94% |
| O=[N+]([O-])c1cccc(-c2ncnn2-c2ccc(Br)cc2F)c1 | -1.82% |
| COc1cccc(NC(=O)Cc2ccccc2)c1 | 0.247% |
| CN(C)CCCN(CCCN(C)C)Cc1ccc2ccccc2c1 | -0.603% |
| COc1ccc(/C=C2\SC(=O)N(CC(=O)Nc3ccc(C)cc3)C2=O)cc1O | -10.8% |
| CCOC(=O)c1cccc(NC(=O)C(C)Oc2ccccc2C)c1 (centres unmarked) | -3.18% |
| COc1cccc(C2CC(=O)NC(SCC(=O)Nc3ccc(Br)cc3)=C2C#N)c1 (centres unmarked) | -4.76% |
| O=C(COc1ccccc1Br)Nc1ccc(Cl)cc1 | 2.13% |
| CSCCC(NS(=O)(=O)c1cccs1)C(=O)NCCc1ccc(Cl)cc1 (centres unmarked) | -2.56% |
| CCOC(=O)C1CCCCN1Cc1c(Cl)cccc1Cl (centres unmarked) | -4.75% |
